This passage reports cytotoxicity call results from the antibiotic and cytotoxicity screens of Wong et al. (2023).

Some of the results follow.

This assay has as its system HSkMC (human skeletal muscle cells). The assay is described as follows: cytotoxicity call (relative viability < 0.9). As to conditions: 10 µM.
On to `COC(=O)CCCCCCC(=O)N/N=C/[C@@H](O)[C@H](O)[C@H](O)CO`, for which the cytotoxicity call was “inactive”.
For `CN(C)CCCNC(=O)C[C@H]1CC[C@H]2[C@H](COc3ccc(NC(=O)c4ccccc4F)cc3C(=O)N2C)O1`, the cytotoxicity call is “inactive”.
On to `COc1ccccc1OC[C@@H](O)COC(N)=O`, for which the cytotoxicity call is “inactive”.
Turning to `COc1ccc(S(=O)(=O)N(C)C[C@H]2Oc3ccc(NC(=O)C4CC4)cc3C(=O)N([C@H](C)CO)C[C@@H]2C)cc1`, the cytotoxicity call is “inactive”.
For the compound `C[C@H]1CN([C@@H](C)CO)C(=O)c2cc(NS(=O)(=O)c3ccccc3)ccc2O[C@H]1CN(C)S(=O)(=O)c1cn(C)cn1`, the cytotoxicity call is “inactive”.
In the case of `C[C@@H]1CN([C@@H](C)CO)C(=O)c2cccc(NC(=O)CCCCCC(=O)Nc3ccccc3N)c2O[C@H]1CN(C)S(=O)(=O)c1cn(C)cn1`, the cytotoxicity call was “inactive”.
The value for `CCN(Cc1cc(C(F)(F)F)ccc1-c1cc(CC(=O)O)ccc1OC)C(=O)NCc1ccccc1` was “inactive”; that for `C[C@H]1CN([C@@H](C)CO)C(=O)Cc2cc(NS(=O)(=O)c3cn(C)cn3)ccc2O[C@H]1CN(C)Cc1ccccc1` was “inactive”; that for `C=CC[C@@H](CC(=O)N[C@@H](CO)Cc1ccccc1)C(=O)N[C@@H](C)COC(=O)[C@H](CC=C)CC(=O)OC(C)(C)C` was “inactive”.
The value for `Cc1n[nH]c(=S)n1N` was “inactive”; that for `COc1ccc(C#Cc2cnc3c(c2)C(=O)N([C@@H](C)CO)C[C@@H](C)[C@@H](CN(C)C(=O)CN(C)C)O3)cc1` was “inactive”.
As for `C[C@@H]1CN([C@H](C)CO)C(=O)Cc2cc(NC(=O)Cn3cnnn3)ccc2O[C@@H]1CN(C)S(C)(=O)=O`, the cytotoxicity call was “inactive”.
